Here are results for 1 compound from article PMC6457909 (Science (New York, N.Y.), 2019).

For the assay, the system named is group-2 HAs. It is filed as binding, influenza A virus.

`CC(=O)Nc1ccc2oc(-c3ccnc(C(=O)N4CCN([C@H](c5ccccc5)c5nnn(C)n5)CC4)c3)nc2c1` [JNJ4796]: the “binding to group-2 HAs” value is recorded as “inability”.
